Structures are written as SMILES. Several values for one entry are separate records, joined by “and”; a condition that tells them apart may be missing. Identical values can stand only once.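 Interpolation was linear, between the two tested concentrations surrounding the appropriate level; five concentrations were tested over 48 hours in 96-well plates. GI50 = concentration required for 50% inhibition of growth. Definition used: TGI = concentration required for complete inhibition of growth.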

The assay concerns NCI-H322M lung. Description: NCI-60 cell line screen, 48 h.
In the case of `CC(=O)C(=[N+]=[N-])C(=O)N(C)CCC#N`, the TGI is above 10 µM.

The compound `N#CCN(CC#N)C1CC=CCC1N(CC#N)CC#N` (stereo not drawn) came in with a TGI above 100 µM.

`Nc1ccc(-c2nc3ccccc3s2)cc1C#Cc1ccccc1` showed a TGI of 52.2 µM.

In the case of `COc1ccc(Nc2nc3cc(N)cc(N)c3nc2-c2ccccc2)cc1OC`, the GI50 was 25.3 µM and the TGI was above 100 µM.

Compound `S=C=NCCc1ccccc1` yielded a TGI of 5.36 µM.

`CC1C2=C(CCCC2=O)N(c2ccc(Cl)cc2)C2=C1C(=O)CCC2` registered a TGI above 100 µM.

Regarding `Cc1cccc(NC(=O)/C=C/c2ccc([N+](=O)[O-])cc2)c1`, the TGI was above 55.3 µM.

For the compound `C=CCOc1ccccc1C1(O)c2ccccc2C2=NCCCN21` (stereo not drawn), the TGI is above 100 µM.

`CCC(O)c1ccc(N=Cc2ccccc2O)cc1` (stereo not drawn) came in with a TGI above 100 µM.

As for `COc1cc2c(cc1C1=NC(C)(C)CO1)OCO2`, the TGI is above 100 µM.

As for `CCS(=O)(=O)c1ccc(OC)c(Nc2ncc(-c3ccccc3Cl)o2)c1`, the GI50 was 24.6 µM and the TGI is above 25 µM.

For the compound `COc1cc(C2C3=C(COC3=O)N(CCO)c3cc4c(cc32)OCO4)cc(OC)c1O` (stereo not drawn), the GI50 was 3.13 µM and the TGI is above 50 µM.

With `O=c1oc2ccc(-c3ccc(F)cc3F)cc2c(=O)n1-c1ccc(Cl)c(C(F)(F)F)c1`, the GI50 was 3.32 µM and the TGI is above 100 µM.

For `NC(Cc1ncccn1)C(=O)O` (stereo not drawn), the TGI was above 100 µM.

Take `CC1=C(C)C2(O)C(=C(C)C1=O)/C(=C(/O)c1ccccc1)c1nc3ccccc3n12` (stereo not drawn): the GI50 was 20.4 µM and the TGI was determined as 51.7 µM.

`O=C(Nc1nnc(-c2c(Cl)c(Cl)c(Cl)c(Cl)c2-c2nc3cc(C(=O)c4ccccc4)ccc3[nH]2)o1)c1ccc(Cl)cc1` yielded a TGI above 100 µM.

Turning to `COc1ccc(C2C=C(c3ccc(Cl)cc3)N=C3SC=C(C)N32)c(Br)c1` (stereo not drawn), the GI50 was 5.76 µM and the TGI was 19.4 µM.

As to `CCOC(=O)/C(=C/c1ccc(N(CCC#N)CCC#N)cc1C)NC(=O)/C=C/c1ccccc1`, the TGI is above 100 µM.

For `COC(=O)/C=C\C(C#N)(C#N)N=Cc1sccc1C`, the TGI stood at 31.1 µM.

Compound `O=C(OC/C=C1C=C(OC(=O)c2ccccc2)/C(=N/N(C(=O)c2ccccc2)c2ccccc2)O\1)c1ccccc1` yielded a TGI of 22.8 µM.

As to `CCN1C[C@]2(COC)[C@H](O)C[C@H](OC)[C@]34C1[C@H]([C@H](OC)[C@H]23)[C@]1(OC(C)=O)[C@H]2[C@@H](OC(=O)c3ccccc3)[C@](O)(C[C@H]24)[C@@H](OC)[C@@H]1O`, the TGI was above 100 µM.

`N#C/C(N)=C(\C#N)N=CNc1ccc(N)cc1` displayed a TGI above 100 µM.

Compound `CN(C)c1cccc2c1C(=O)C=CC21CCc2ccc(N(C)C)c3c(N(C)C)ccc1c23` (stereo not drawn) registered a TGI of 31.5 µM.

Turning to `Cc1cc(Nc2cc(N3CCN(C)CC3)nc(Sc3ccc(NC(=O)C4CC4)cc3)n2)n[nH]1`, the GI50 is above 10 µM and the TGI is above 10 µM.

As to `COc1cc(/C=C/c2cc(/C=C/c3ccc(O)c(OC)c3)n(C(=O)Nc3ccc(Cl)cc3)n2)ccc1O`, the GI50 was 0.765 µM and the TGI was 7.71 µM.

Regarding `CCOC(=O)c1cc(C2CCN(c3ccccc3)C2=O)c(C(=O)/C=C(/C)N)[nH]1` (stereo not drawn), the TGI was above 100 µM.

In turn, `CN(C)c1ccc(/C=c2/c3ccccc3n3c2c2cc(F)ccc2[n+]3C)cc1` came in with a TGI of 17.6 µM.

In the case of `Cc1cccc2c(N)c3cccc(C(=O)NCC[N+]4(Cc5ccc([N+](=O)[O-])cc5)CCOCC4)c3nc12`, the TGI is above 100 µM.

For `CC(=O)OC1CC[C@@]2(C)C(CC[C@]3(C)C2CC=C2[C@@H]4C(C)[C@H](C)CCC4(C)CCC23C)[C@@]1(C)C(=O)O` (stereo partly drawn), the TGI amounted to 35.7 µM.

In turn, `CCOC(=O)C(C)c1nc2ccc(C(F)(F)F)cc2[nH]c1=O` (stereo not drawn) displayed a TGI above 100 µM.

As for `C=CCN(c1cc(OC)c2[nH]c(C(=O)OCC)c(C)c2c1[N+](=O)[O-])S(C)(=O)=O`, the TGI worked out at 84.9 µM.

For the compound `O=c1[nH]c(=O)n(C2CC(O)C(CO)O2)cc1C#Cc1ccc(F)cc1` (stereo not drawn), the TGI was above 100 µM.

On to `Nc1ccccc1C#C/C=C\C#Cc1c(F)c(F)c(F)c(F)c1F`, for which the GI50 is 25.3 µM and the TGI is 89 µM.

The compound `CC1(C)CC(=O)c2c(nc3c(ccc4ccccc43)c2-c2ccc(NC(=O)CCCCC(=O)Nc3ccc(-c4c5c(nc6c4ccc4ccccc46)CC(C)(C)CC5=O)cc3)cc2)C1` came in with a TGI of 91.2 µM.

As to `COc1cc2c(=O)n(CCN(C)C)c3c4cc5c(cc4ccc3c2cc1OC)OCO5`, the GI50 is 0.373 µM and the TGI stood at 2.99 µM.

On to `CN(C)CCNC(=O)c1cccc2ccc(-c3ccc(-c4ccccc4)cc3)nc12`, for which the TGI was determined as 25 µM.

Turning to `COC1C2c3cc4c(cc3CC(C#N)(c3ccccc32)N1C(=O)c1ccccc1)OCO4` (stereo not drawn), the TGI is above 100 µM.

Regarding `O=S(=O)(Nc1ccc(F)c(Cl)c1)c1ccc(-c2cnc(C3CC3)o2)cc1`, the GI50 was 0.656 µM and the TGI amounted to 17.5 µM.

As to `COc1cccc(/C(C)=N/NC(=O)CSc2nc3ccccc3c(=O)n2CCc2ccc(S(N)(=O)=O)cc2)c1`, the GI50 is 5.36 µM and the TGI turned out to be 24 µM.

As to `CC(C)(C)OC(=O)Cn1ncn(NC(=O)Cc2ccccc2)c1=O`, the TGI was above 10 µM.

Regarding `N#Cc1ccc2cc3c(cc2c1)OCO3`, the TGI is above 100 µM.

With `C[C@@H]1COCCN1c1cc(C2([S@@](C)(=N)=O)CC2)nc(-c2ccnc3[nH]ccc23)n1`, the GI50 is 2.86 µM and the TGI was above 44.1 µM.

Take `Nc1nc(=O)n([C@@H]2CS[C@H](CO)O2)cc1F`: the GI50 was above 100 µM and the TGI is above 100 µM.

Take `Cc1ccc2oc3c(c(Br)c(Br)n3C)c(=O)c2c1`: the TGI amounted to 65.3 µM.

Turning to `CCCN1C(=O)/C(=C\c2ccc(OC)c(OC)c2)SC1=Nc1ccccc1`, the TGI is above 100 µM.

On to `O=C1CSC2=NC3=C(CSC/C3=C\c3ccccc3)C(c3ccccc3)N12` (stereo not drawn), for which the TGI was above 100 µM.

As for `O=C(/C=C/C12c3ccccc3C(c3ccccc31)C1C(=O)NC(=O)C12)c1ccc(Cl)cc1` (stereo not drawn), the GI50 was 1.42 µM and the TGI came to 2.73 µM.

The compound `CC(C)/C(=N\[N+](C)(C)C)c1ccccc1` came in with a TGI above 100 µM.

`C#CCN(C(=O)C(F)(F)F)c1ccc(C(=O)c2ccc(N(CC#C)C(=O)C(F)(F)F)cc2)cc1` came in with a TGI above 100 µM.

Consider `COc1cccc(C2C3=C(COC3=O)N(CCO)c3cc4c(cc32)OCO4)c1` (stereo not drawn), for which the GI50 was 2.12 µM and the TGI was above 50 µM.

On to `CN1CCN(CCOc2cc(OC3CCOCC3)c3c(Nc4c(Cl)ccc5c4OCO5)ncnc3c2)CC1`, for which the GI50 is 0.362 µM and 0.38 µM; the TGI was 13 µM and > 10 µM.

In the case of `COP(=O)(OC)/C(=C/c1cn(C(c2ccccc2)(c2ccccc2)c2ccccc2)cn1)NC=O`, the TGI was 58.8 µM.

With `O=C(Nc1ccccc1O)c1ccc(NS(=O)(=O)c2cccc3cccnc23)cc1`, the GI50 is 2.35 µM and the TGI is above 23.6 µM.

For the compound `OC12c3ccccc3C3CCC4(OCCO4)C3C1c1ccccc12` (stereo not drawn), the TGI was above 100 µM.

As to `COc1ccc(/C=C\c2cc(OC)c(OC)c(OC)c2)cc1OCC(=O)Nc1ccc2nc(C)sc2c1`, the GI50 is 6.73 µM and the TGI is above 100 µM.

Consider `CCOC(=O)c1c(N2CCCC2)ncn(C)c1=S`, for which the TGI was above 100 µM.

In turn, `O=C1CCCCC/C1=C\c1ccccc1` displayed a TGI above 100 µM.

`CN1C(=O)CC2CCC(=O)N2c2cccnc21` (stereo not drawn) returned a TGI above 100 µM.

`C=CCCCCOC1C=CC(O)C(CO)O1` (stereo not drawn) gave a TGI above 100 µM.

Consider `Cc1cc(=O)[nH]c(CNC(=O)c2cccc(C(=O)NCc3cc(=O)[nH]c(C)n3)c2)n1`, for which the TGI was above 100 µM.

As for `Cc1cn(-c2ccc(S(C)(=O)=O)cc2)c(-c2ccc(Cl)cc2)n1`, the GI50 was above 100 µM and the TGI was above 100 µM.

For the compound `COc1ccc(C2C3CCCC(C3=O)C(c3ccc(OC)cc3)N2N=O)cc1` (stereo not drawn), the TGI is above 100 µM.

Consider `O=C(CC(=O)c1cccc(Cl)c1)c1cccc(Cl)c1`, for which the GI50 is 3.33 µM and the TGI is above 100 µM.

In turn, `S=C(N1CCN(c2cccc(Cl)c2)CC1)N1CCN(c2cccc(Cl)c2)CC1` had a TGI above 100 µM.

`COc1ccc2c(c1)c(=O)c1c(NCCN(C)C)ccc3nnn2c31` displayed a TGI of 9.13 µM.

With `Cc1ccc(-c2nc(-c3cn(C)c4ncccc34)cs2)cc1`, the GI50 was 7.24 µM and the TGI came to 27.1 µM.

On to `N#Cc1c(-c2ccc(Cl)cc2)c2c(N=Nc3c(O)ccc4ccccc34)[nH]nc2[nH]c1=O`, for which the TGI was determined as 2.72 µM.

With `CC(=O)c1cc(C(=O)c2ccc3c(c2)Sc2ccccc2N3)c2c(C)cccn12`, the GI50 is 0.701 µM and the TGI was above 100 µM.

As for `ClCc1cccc(CSc2ncnc3c2ncn3Cc2cccc(CCl)c2)c1`, the GI50 was 2.15 µM and the TGI is 4.45 µM.

On to `Cc1ccc(NCCN(C)C)c2c(=O)c3ccccc3sc12`, for which the GI50 is 2.03 µM and the TGI was determined as 4.75 µM.

Take `CC[N+](C)(CC)CC(C)(C)C(=O)/C=C/c1ccc(/C=C/C(=O)C(C)(C)C[N+](C)(CC)CC)cc1`: the TGI was above 100 µM.

With `CN(C(=O)Cc1cc(Cl)c(Cl)cc1NC(=O)CN)[C@H]1CCCC[C@@H]1N1CCCC1`, the TGI is above 100 µM.

Consider `CC1(C)OC[C@@H](O)[C@H](Br)CO1`, for which the TGI is above 100 µM.

With `COc1ccccc1NS(=O)(=O)c1ccc2oc(SC(C)C)nc2c1`, the GI50 was 28.1 µM and the TGI stood at 79.2 µM.

In the case of `N#Cc1c(N)nc(NCc2ccccc2)c(C#N)c1-c1ccc(Cl)cc1Cl`, the GI50 is above 62.8 µM and the TGI is above 100 µM.

Regarding `Cn1c(=O)c2[nH]cnc2n(CC(N)=O)c1=O`, the TGI is above 100 µM.

In the case of `COC(=O)/C=C(\S/C=C(/c1ccccc1)N1CCn2c(C(=O)c3ccccc3)c(C(=O)OC)c(C(=O)OC)c21)C(=O)OC`, the TGI was above 10 µM.

In turn, `CC1NC(=O)C2=C1C(N)=NC(=O)C2` (stereo not drawn) gave a TGI above 100 µM.

For the compound `c1ccc([As]=[As]c2ccccc2)cc1` (stereo not drawn), the GI50 was 1.99 µM and the TGI is 3.98 µM.

Consider `C=CCc1cc(C(Cc2ccccc2)NC(C)C)cc(OCc2ccccc2)c1OCc1ccccc1` (stereo not drawn), for which the TGI is 28.7 µM.

`Clc1ccccc1C(Nc1ncccn1)Nc1ncccn1` registered a TGI above 100 µM.

`CC1(C)CCCCCC(C)(CCCO)C1=O` (stereo not drawn) returned a TGI above 100 µM.

`C/C=C/COC(=O)CO[N+](=O)[O-]` registered a TGI above 100 µM.

For `COc1ccc(N(/C=C/C(=O)C(F)(F)F)CC(=O)c2ccc(Cl)cc2)cc1`, the GI50 was 16 µM and the TGI was 47.5 µM.

The record behind these values is PubChem BioAssay (NCI).
